PMC4336329 (PLoS ONE, 2015)
Screen size: about 310,000 compounds; about 2,200 (0.71%) showed an effect of 50% or more. The effect is printed as a negative number. This is one part of the list.

target: human ether-à-go-go-related gene (hERG) potassium channel (human, UniProt Q12809); experiment: primary screen, population patch clamp on CHO cells stably expressing hERG
Sequence (Q12809 whole entry, looked up): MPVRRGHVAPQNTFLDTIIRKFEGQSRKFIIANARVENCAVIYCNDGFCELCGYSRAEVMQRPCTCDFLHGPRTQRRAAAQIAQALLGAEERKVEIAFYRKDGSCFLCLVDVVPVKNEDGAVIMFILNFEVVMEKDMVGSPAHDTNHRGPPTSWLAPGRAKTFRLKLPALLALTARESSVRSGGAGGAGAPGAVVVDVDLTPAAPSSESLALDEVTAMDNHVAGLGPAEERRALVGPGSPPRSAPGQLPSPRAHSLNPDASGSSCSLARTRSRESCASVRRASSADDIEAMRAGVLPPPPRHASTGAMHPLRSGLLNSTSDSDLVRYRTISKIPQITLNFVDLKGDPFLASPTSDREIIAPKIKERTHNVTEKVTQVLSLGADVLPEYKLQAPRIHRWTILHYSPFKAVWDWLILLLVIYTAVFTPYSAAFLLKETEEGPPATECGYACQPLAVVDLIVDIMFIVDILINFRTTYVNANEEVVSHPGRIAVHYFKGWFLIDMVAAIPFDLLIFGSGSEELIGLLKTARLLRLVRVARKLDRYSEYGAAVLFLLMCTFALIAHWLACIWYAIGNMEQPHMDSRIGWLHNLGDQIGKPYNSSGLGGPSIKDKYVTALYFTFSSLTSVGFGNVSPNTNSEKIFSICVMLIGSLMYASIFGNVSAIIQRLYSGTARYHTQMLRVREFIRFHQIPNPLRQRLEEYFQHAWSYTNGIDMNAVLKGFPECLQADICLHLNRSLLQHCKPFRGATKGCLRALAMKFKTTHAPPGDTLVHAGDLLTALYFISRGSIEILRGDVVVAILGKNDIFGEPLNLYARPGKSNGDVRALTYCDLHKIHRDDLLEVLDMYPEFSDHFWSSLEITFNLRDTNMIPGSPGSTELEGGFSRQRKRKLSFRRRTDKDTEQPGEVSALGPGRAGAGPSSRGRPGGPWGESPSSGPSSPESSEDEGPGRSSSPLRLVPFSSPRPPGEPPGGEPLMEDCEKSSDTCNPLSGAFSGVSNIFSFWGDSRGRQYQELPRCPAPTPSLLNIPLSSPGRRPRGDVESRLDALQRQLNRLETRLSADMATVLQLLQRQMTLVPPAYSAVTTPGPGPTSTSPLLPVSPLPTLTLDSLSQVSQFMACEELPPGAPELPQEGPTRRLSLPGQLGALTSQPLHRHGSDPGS

SMILES	hERG current change (%, negative = inhibition) at 1uM [%]
C=CCNc1nc(NCC)nc(N2CCOCC2)n1	3.16
O=C(CN(Cc1ccc(F)cc1)C(=O)CNS(=O)(=O)c1ccc(F)cc1)NCC1CCCO1 (stereo not drawn)	10.3
Oc1[nH]c2ccccc2c1N=NC(=S)NCC1CCCO1 (stereo not drawn)	10.9
COc1cc(OC)cc(C(=O)N2CCC(C(=O)Nc3ccc4c(c3)OCCO4)CC2)c1	12.5
Cc1nc2c(-c3ccc(Cl)cc3)cnn2c2c1CCC2	-4.35
COc1ccc2nccnc2c1[N+](=O)[O-]	17.3
CCC(=O)NC(=S)Nc1cc(C(=O)O)ccc1OC	12.2
CCCNC(=O)COC(=O)c1n[nH]c2ccccc12	12.2
COc1ccc(N2CCN(C(=O)c3c(Cl)cnn3C)CC2)cc1	8.33
CC(C)C[C@@H](C(=O)NC1CC1)N1C(=O)N2CCc3c([nH]c4ccccc34)[C@@]2(C)C1=O	-3.26
CCOC(=O)N1CCC(N2Cc3cccc(C(=O)NC(C)c4ccc5c(c4)OCCO5)c3C2=O)CC1 (stereo not drawn)	-18.9
CC1C/C(=N\NC(=S)NC(C)C)CC(C)(C)C1 (stereo not drawn)	10.8
Cc1c(NC(=O)CN2C(=O)NC3(CCCCC3)C2=O)c(=O)n(-c2ccccc2)n1C	-0.29
Cc1nc(C(C)NC(=O)c2cc(COc3ccc(C)c(C)c3)on2)c(C)s1 (stereo not drawn)	19.2
CCN1CCN(CC(=O)N2N=C(c3cccs3)CC2c2ccc(OC)cc2)C(=O)C1=O (stereo not drawn)	0.514
O=C(CSc1nc(O)c(Cc2ccccc2)c(=O)[nH]1)c1ccccc1	13.1
COc1ccc(NS(=O)(=O)c2cccs2)cc1S(=O)(=O)N1CCOCC1	14.7
Cc1ccc(-c2nnc(N(C)C(=O)C3CCCO3)s2)cn1 (stereo not drawn)	10.5
COc1cccc(-n2nc(C(=O)N3CC(C)CC(C)C3)c3ccccc3c2=O)c1 (stereo not drawn)	14.5
COc1ccc(C(=O)NC(=O)CSc2nnc(-c3ccco3)n2-c2ccccc2)cc1	8.42
CCOc1ccc(S(=O)(=O)N2CCCCC2)cc1NC(=O)CN1CCCC1c1cccs1 (stereo not drawn)	-0.0623
Cc1c(NS(=O)(=O)c2cc(Br)cc3c2N(C(=O)C2CC2)CC3)c(=O)n(-c2ccccc2)n1C	14

SMILES	hERG current change (%, negative = inhibition) at 1uM [%]
Cc1nnc(NC(=O)CSC2=NN3CCCC(=O)N=C3S2)s1	8.54
O=C(OCc1cc([N+](=O)[O-])cc2c1OCOC2)c1ccc2ccccc2n1	13.1
CCCn1c(SCC(=O)Nc2ccc(C(=O)Nc3ccccc3OC)cc2)n[nH]c1=O	17.6
Cc1onc(C(=O)N2CCN(c3ccccc3)CC2)c1[N+](=O)[O-]	15.4
Cc1c(C(=O)O)sc2nc(SCC(=O)Nc3ccc(S(=O)(=O)NC(C)(C)C)cc3)[nH]c(=O)c12	16.1
O=C(NCN1CCCCC1)c1cnccn1	-6.1
COC(=O)c1ccc(CSc2nnc(-c3ccncc3)n2Cc2ccccc2)o1	5
Cc1ccccc1Nc1c([N+](=O)[O-])ccc2nonc12	-10.2
C/C(=N\NC(=O)c1ccco1)c1ccc(NC(=O)c2ccccc2)cc1	9.16
Br.COc1ccc(C(=O)CN2Cc3ccccc3C2=N)cc1	1.8
N#Cc1c(N)nc(Sc2ccc(Cl)cc2)c(C#N)c1-c1ccccc1Cl	10.2
Cc1ccc(N(C)S(=O)(=O)c2cccc(C(=O)Nc3nnc(C4CC4)s3)c2)cc1	10.1
CC(C)(C)N(CC(=O)NC1CCCCC1)C(=O)CS(=O)CC(=O)Nc1ccc(F)cc1 (stereo not drawn)	13.5
COc1ccc(-n2c(=O)c3ccccc3n(CC(=O)NC3CCCC3)c2=O)c(OC)c1	-6.61
O=C(Nc1ccc(F)c(F)c1)C1CCCN(S(=O)(=O)c2cnc[nH]2)C1 (stereo not drawn)	-0.795
CCC(=O)c1cc2c(cc1NC(=O)c1cccs1)OCCO2	7.22
CCc1nc(-c2ccccc2)c2ccccn12.O=C(O)C(=O)O	-1.42
O=C(NCC1CCCO1)c1ccc(NC(=O)c2cccc(Cl)c2)cc1 (stereo not drawn)	-1.28
O=C(NC1CCCC1)C(c1cccs1)N(C(=O)c1ccno1)c1ccccc1 (stereo not drawn)	7.53
CC1(c2ccccc2)NC(=O)N(CC(=O)Nc2ccc(Cl)c(S(=O)(=O)N3CCCCC3)c2)C1=O (stereo not drawn)	9.13
CCN(CC(=O)Nc1ccccc1OC)C(=O)c1ccc(NC(=O)c2cccs2)cc1	12.2
COc1cccc(N2CCN(S(=O)(=O)c3c(C)[nH]c(C)c3C(=O)N3CCCC3)CC2)c1	13.5

SMILES	hERG current change (%, negative = inhibition) at 1uM [%]
CCN1CCN(CCNC(=O)c2ccc(CS(=O)c3ccc(Cl)cc3)o2)CC1 (stereo not drawn)	8.59
COc1ccc(S(=O)(=O)N2CCOC23CCN(S(=O)(=O)c2ccc(F)cc2)CC3)cc1	6.42
O=C(OCn1nnc2ccccc2c1=O)c1ccco1	10.7
CC(C)CC(=O)N1CCN(C(=O)c2ccco2)CC1	8.93
COc1ccc(-c2nc(CS(=O)(=O)CC(=O)NCc3cccc(Br)c3)c(C)o2)cc1	-11.4
CC(Cc1ccccc1)N1C(=O)c2ccccc2C1=O (stereo not drawn)	16.1
CCOc1ccc(N(CC(=O)NCCSc2ccccn2)S(C)(=O)=O)cc1	12.9
CCOC(=O)c1sc(=S)n(C)c1NC(=O)c1ccccc1Cl	15
CCCCCn1c(Sc2nc3ccccc3s2)nc2c1c(=O)[nH]c(=O)n2C	0.9
COc1cccc(OC)c1C(=O)Nn1c(-c2cccc(C)c2)nc2ccccc2c1=O	12.6
COC(=O)/C(=C(O)\C=C\c1ccccc1[N+](=O)[O-])c1nc2ccccc2[nH]1	7.17
Cc1ccc(NC(=S)NCc2ccc(S(N)(=O)=O)cc2)cc1Cl	8.61
CCn1c(SCC(=O)N/N=C/c2ccc(C)s2)nc2ccccc21	8.66
Cc1ccc(CNCCc2ccc(F)cc2)s1	11.3
CSCCC(NC(=O)c1ccccc1Br)C(=O)NC(C)CCc1ccccc1 (stereo not drawn)	11.7
O=C(NCCCNC(=O)c1ccco1)c1ccco1	10.9
COC(=O)/C(N=Nc1cccc(C(F)(F)F)c1)=C(\C)O	7.24
CN(Cc1ccccc1)c1nc(-c2cccc([N+](=O)[O-])c2)nc2ccccc12	4.94
Cc1ccccc1OCc1nnc(SCc2nc3ccccc3c(=O)[nH]2)n1C	9.26
CN(Cc1ncc[nH]1)C(=O)CC1C(=O)NCCN1Cc1c(F)cccc1Cl (stereo not drawn)	12.3
COc1ccc(NC(=O)Nc2ccc(Br)cn2)cc1OC	5.18
O=C(Nc1cccc(O)c1)c1ccc(C(=O)c2ccccc2)o1	-1.55

SMILES	hERG current change (%, negative = inhibition) at 1uM [%]
COc1ccc(C(=O)NCc2nnc(SCC(=O)N3CCCC3)o2)cc1OC	12.5
CCOC(CNC(=O)Cc1c(C)nc2c(-c3ccccc3)c(C)nn2c1C)OCC	4.51
NC(=O)C1c2ccccc2CSc2ccccc21 (stereo not drawn)	4.14
CNC(=O)CCC(=O)Nc1ccc(C)cc1	7.38
CC1(c2ccccc2)NC(=O)N(CC(=O)Nc2ccc3c(c2)OCO3)C1=O (stereo not drawn)	4.91
COc1ccc(-n2c(Cc3cccn3C)nnc2SCC(=O)Nc2ccc3c(c2)OCCO3)cc1	1.16
O=C(N/N=C/c1cccc(Oc2ccccc2)c1)c1ccccc1F	7.7
O=C1C=C(NCc2ccccc2)C2(CCCCC2)O1	4.74
CCCC(=O)NC(=S)Nc1ccc(NC(=O)c2cccs2)cc1	-3.11
CC(=O)c1sc(NC(=O)C(C)Oc2ccc3c(C)cc(=O)oc3c2)nc1C (stereo not drawn)	13.7
CSc1cccc(NC(=O)CN2C(=O)c3ccccc3S2(=O)=O)c1	5.37
Cc1cccc2sc(NC(=O)CCNS(=O)(=O)c3cccc4nonc34)nc12	3.33
CC(=O)Nc1nnc(CSCc2ccccc2F)s1	13.8
N#Cc1c(NCCN)nc(-c2ccccc2)c2c1CCCC2	2.17
Cc1cc([N+](=O)[O-])ccc1NC(=O)C[n+]1ccc(N(C)C)cc1.[Cl-]	2.44
CN(C)CCCN1C(=O)C(O)=C(C(=O)c2cc3ccccc3o2)C1c1ccccc1 (stereo not drawn)	8.14
Cc1nn(-c2ccccc2)c(Oc2ccc(F)cc2)c1/C=N/n1cnnc1	-11.6
CC(=O)Nc1ccc(S(=O)(=O)NC(C)c2ccccc2)cc1 (stereo not drawn)	12.9
Cc1ccnc(N=Cc2c(O)ccc3oc4c(c23)CCCC4)c1	5.18
CC(C)Cn1c(-c2ccco2)nc2c(c(=O)c3ccccc3n2C)c1=O	-5.08
CCOc1ccccc1C(=O)Nc1cc(=O)n(C)c(=O)n1C	9.12
